# Measured values from PubChem BioAssay AID1240 (Sanford-Burnham Center for Chemical Genomics, 2008).
# The campaign covered roughly 50,000 compounds. About 800 (1.6%) showed an effect of 50% or more. The list shows a part of the results.
# Target: Bcl-2-like protein 10 (Homo sapiens) (UniProt Q9HD36)
# Test: TR3 peptide-Bcl-B binding displacers, biochemical primary FP assay, phenotype converters (AID 1240);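 note: 0% = Bcl-B with tracer peptide and DMSO and 100% = tracer peptide lacking Bcl-B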
# Details: GST-Bcl-B / FITC-TR3 peptide fluorescence polarization; stronger effect = higher value; compound at 3.75 mg/L
# Chain of UniProt Q9HD36 (Q9HD36 whole entry, looked up): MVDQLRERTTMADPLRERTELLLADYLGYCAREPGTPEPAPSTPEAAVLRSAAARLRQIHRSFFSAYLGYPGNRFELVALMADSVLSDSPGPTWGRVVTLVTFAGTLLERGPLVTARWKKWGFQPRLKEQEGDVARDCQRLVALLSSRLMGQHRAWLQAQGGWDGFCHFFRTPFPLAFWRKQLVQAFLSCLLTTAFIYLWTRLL
row,SMILES,displacement
1,CN(C)S(=O)(=O)NCC(=O)NN=Cc1ccncc1,3.8%
2,C=CCn1c(COc2ccc3ccccc3c2)nc2ccccc21,-1.6%
3,Cc1ccc(/C(O)=C2\C(=O)C(=O)N(c3ccc(O)cc3)C2c2ccccc2F)cc1 (stereo not given),-4.1%
4,O=C(N/N=C/c1cccs1)C1CC(=O)N(c2ccc(Cl)cc2)C1 (stereo not given),-9.3%
5,COc1cc2ccccc2cc1C(=O)Nc1cccc([N+](=O)[O-])c1,9.6%
6,COc1ccc(/C=C2\C=C(c3ccc(C)cc3)OC2=O)cc1[N+](=O)[O-],6.6%
7,CCOC(=O)c1c(-c2ccc(C)cc2C)csc1NC(=S)NC(=O)c1ccccc1,1.3%
8,Nc1nnc(Cc2ccc(F)cc2)s1,3.5%
9,CCCN(CCC)C(=O)c1ccccc1Br,1.4%
10,CCOC(=O)CCNC(=O)c1ccccc1Br,13.2%
11,CCOC(=O)c1ccc(NC(=O)C(CC)Oc2ccccc2)cc1 (stereo not given),-1.3%
12,Cc1ccc(NC(=O)/C=C/c2ccc([N+](=O)[O-])cc2)cc1C,-6.8%
13,CCOC(=O)c1c(-c2ccccc2)csc1NC(=O)COc1ccccc1C,-3.9%
14,Cc1ccc(S(=O)(=O)Nc2ccc(S(=O)(=O)N3CCCCC3)cc2)cc1[N+](=O)[O-],-4%
15,Cc1onc(-c2c(Cl)cccc2Cl)c1C(=O)Nc1ccc2c(c1)OCCO2,7.4%
16,Cc1nnc(N2C(=O)c3ccc([N+](=O)[O-])cc3C2=O)s1,-1.6%
17,O=[N+]([O-])c1ccc(C=NCC2OCCc3ccccc32)cc1 (stereo not given),-4.4%
18,Cc1ccc(N2C(=O)C(Cl)=C(NCCO)C2=O)c(C)c1,9.2%
19,CCOC(=O)C1=C(C)N=c2s/c(=C/c3ccc(C(=O)OC)cc3)c(=O)n2C1c1ccc(OC(C)=O)cc1 (stereo not given),9.3%
20,Cc1cc(/C=C2/NC(=O)NC2=O)c(C)n1-c1ccc(Cl)cc1,10.7%
21,O=C(COc1ccc(Cl)cc1)NNC(=O)C1COc2ccccc2O1 (stereo not given),-5.2%
22,COC(=O)C1=C(C)NC(C)=C(C(=O)OC)C1c1cccc(Br)c1,7.5%

row,SMILES,displacement
1,COc1ccccc1NCC(=O)n1nc(C)cc1C,-6.9%
2,CCOC(=O)C1=C(C)NC(SCC(N)=O)=C(C#N)C1c1cccc([N+](=O)[O-])c1 (stereo not given),8.4%
3,Cc1ccc(OCC(=O)Nc2ccccc2CO)cc1,-9.2%
4,COc1cc(/C=N/NC(=O)Cc2n[nH]c(=O)[nH]c2=O)cc([N+](=O)[O-])c1O,-7.4%
5,CC(Sc1nnc(-c2cccnc2)o1)C(=O)c1ccccc1 (stereo not given),7.9%
6,CCOc1ccc(N(CC(=O)Nc2cccc(C(F)(F)F)c2)S(C)(=O)=O)cc1,-4.2%
7,COc1ccccc1C(=O)NNC1=CC(=O)CC(C)(C)C1,14.2%
8,COc1cc(C2CC(=O)Nc3c2ccc2ccccc32)ccc1OC(=O)c1ccc(Cl)cc1 (stereo not given),-6%
9,OC1(C(F)(F)F)CC(c2ccccc2)=NO1 (stereo not given),-5.8%
10,Cc1cc(C=O)c(C)n1-c1ccc(Cl)cc1,7.7%
11,CC(=O)c1ccc(-n2c(C)ccc2-c2ccccc2)cc1,9.2%
12,Cc1c(NC(=O)/C=C/c2cn(-c3ccccc3)nc2-c2ccc(F)cc2)c(=O)n(-c2ccccc2)n1C,12.2%
13,O=[N+]([O-])c1ccc(Oc2cc(C(F)(F)F)ccc2Cl)cc1O,6.9%
14,CCCCOC(=O)c1ccc(NC(=S)NC(NC(=O)OCC)C(Cl)(Cl)Cl)cc1 (stereo not given),-1.1%
15,CC(C)CNC(=O)C(=O)NCc1ccc(Cl)cc1Cl,8.2%
16,Cc1ccc(NCCC(=O)c2cccs2)cc1C,-16.2%
17,COC(=O)C1=C(N)Oc2n[nH]c(C)c2C1c1ccc(Br)cc1 (stereo not given),-3.6%
18,O=C(c1sc2ccccc2c1Cl)N1CCN(Cc2ccccc2)CC1,2.6%
19,O=C(O)c1ccc(Cl)c(-c2ccc(/C=N\Nc3ccc([N+](=O)[O-])cn3)o2)c1,-25.7%
20,CCOC(=O)Nc1ccc2c(c1)N(C(=O)NC)c1ccccc1CC2,-2.3%
21,C=C(C)CSc1nc2sc3c(c2c(=O)n1CC(=C)C)CC(C)(C)OC3,-10.4%
22,CCC(=O)NNc1nc2c(c(=O)n1C1CCOC(C)(C)C1)C1(CCCCC1)Cc1ccccc1-2 (stereo not given),-15.6%

row,SMILES,displacement
1,CC(C)Oc1nnc(-c2ccccc2)c2ccccc12,-2.1%
2,Cc1sc(NC(=O)c2ccccc2)nc1-c1ccccc1,2%
3,CCCP(=O)(CCC)CCP(=O)(c1ccccc1)c1ccccc1,0.6%
4,CC(C)CNc1ncnc2ccc(Br)cc12,5.6%
5,Cc1cccc(NC(=O)CC2S/C(=N\N=C3/CCCc4ccccc43)NC2=O)c1C (stereo not given),11.9%
6,CS(=O)(=O)N1CCN(c2ccc([N+](=O)[O-])c(NC3CC3)c2)CC1,8.3%
7,Cc1ccc(OCCCc2c(C)n[nH]c2C)c(C)c1,9%
8,CC1=NN(c2ccccc2)C(=O)C1C(c1ccccc1O)c1c(C)[nH]n(-c2ccccc2)c1=O (stereo not given),-8.8%
9,O=c1nc(-c2ccccc2Cl)c2cc(Br)ccc2[nH]1,0.3%
10,O=C(NCc1cccnc1)c1ccc(-c2cc(Cl)ccc2Cl)o1,-4.7%
11,CCOc1ccc(/C=C\C(C)=N\O)cc1,5.9%
12,COC(=O)NC(NC(=O)OC)c1ccc(OC)cc1,-4.5%
13,O=C(NCCN1CCOCC1)c1cnn2c(C(F)(F)F)cc(-c3ccc(Br)cc3)nc12,-1.9%
14,CCOC(=O)CNS(=O)(=O)CCN1C(=O)c2ccccc2C1=O,-5.7%
15,CCOC(=O)N/N=C(\C)c1ccccn1,3.5%
16,CCOC(=O)C(CCCOc1c(C)cc(Cl)cc1C)C(=O)OCC,-5.7%
17,CC1=NN(c2ccccc2)C(=O)/C1=C\C=C\c1cccc([N+](=O)[O-])c1,8.3%
18,CCc1ccc(NC(=O)C2CC(=O)N(c3ccc(Br)cc3)C2)cc1 (stereo not given),12.9%
19,OC(COc1cccc(OCC(O)CN2CCCCC2)c1)CN1CCCCC1 (stereo not given),-9.2%
20,O=C(NCc1ccc2c(c1)OCO2)C(=O)Nc1ccccc1F,-3.1%
21,COc1cc(/C=C2/C(=O)NN(c3ccc(C)c(C)c3)C2=O)ccc1O,-1.1%
22,COc1cc(CN2CCN(S(=O)(=O)c3ccc(C)cc3)CC2)cc(OC)c1O,6.8%

row,SMILES,displacement
1,O=C(NC(c1ccccc1)c1ccc2cccnc2c1O)c1ccccc1 (stereo not given),0.9%
2,Cc1ccc(Sc2ccc(/C=N/n3cnnc3)o2)cc1,-8.1%
3,Cc1no[n+]([O-])c1COc1ccc(C=C2C(=O)NC(=O)NC2=O)cc1,2.5%
4,COc1ccc(CC(=O)Nc2cc(C(=O)O)cc(C(=O)O)c2)cc1OC,11.6%
5,Cc1cc(NC(=O)COc2ccccc2Cl)ccc1NC(=O)c1ccccc1,-6.5%
6,Clc1cccc(N=Cc2ccc(OC3CSC3)cc2)c1,3.9%
7,Cc1cc(C(=O)Nc2ccc(S(=O)(=O)Nc3nccs3)cc2)ccc1[N+](=O)[O-],5.6%
8,CN(C)CCN1C(=O)C(=O)/C(=C(/O)c2ccccc2)C1c1ccc(Cl)cc1 (stereo not given),-15.6%
9,CC(C)NC(=O)C(=O)NCc1ccccn1,-0.4%
10,CC(=O)NNc1nc2ccccc2s1,-21.4%
11,CCOc1ccc(N(CC(=O)N2CCCCC2)S(C)(=O)=O)cc1,2.2%
12,Cc1nc2ccc(NC(=S)NCCCO)cc2nc1C,9.5%
13,Cn1c(=O)c(N2CCCCC2)c2c3c(cccc31)C(=O)c1ccccc1-2,147%
14,C=C(C)Cn1c(SCC(N)=O)nc2sc3c(c2c1=O)CCC3,-3.2%
15,O=C(c1ccc(Cl)c([N+](=O)[O-])c1)N1CCC(Cc2ccccc2)CC1,8.7%
16,CC(=O)Oc1cccc(N2C(=O)c3ccc(-c4nc5ccccc5c(=O)o4)cc3C2=O)c1,-7.9%
17,CCn1ccnc1C(O)c1ccc(OC)c(OC)c1 (stereo not given),-7.8%
18,COc1cccc(OCCOc2cccc(/C=C3/SC(=S)N(Cc4ccccc4)C3=O)c2)c1,-3.3%
19,Cc1sc2nc(-c3ccc(Br)cc3)[nH]c(=O)c2c1C,-3.4%
20,COc1ccc(O)c(CN2CCN(Cc3ccccc3OC)CC2)c1,11.2%
21,COc1ccc(Cl)cc1NC(=O)c1cc(Cl)ccc1OC,4.7%
22,CCOc1ccccc1C1CC(=O)NC(SC)=C1C#N (stereo not given),-5.9%

row,SMILES,displacement
1,COC(=O)c1ccccc1NC(=O)CSc1nc2ccc(N3C(=O)c4ccccc4C3=O)cc2s1,3.2%
2,Cc1cccc(OCC(=O)O/N=C(\N)c2ccc([N+](=O)[O-])cc2)c1,13.5%
3,Cc1nc2ccc(NC(=S)Nc3cccc([N+](=O)[O-])c3)cc2nc1C,11.4%
4,Cc1cc(C)cc(-n2c(C)cc(C=C3SC(=S)NC3=O)c2C)c1,-9%
5,O=C(Nc1ccc(Cl)cc1)c1ccc2c(c1)OCCO2,7.4%
6,O=[N+]([O-])c1ccc(S(=O)(=O)N(CCO)C2CCCCC2)cc1,-7.1%
7,COc1ccc(/C=N/S(=O)(=O)c2ccc(C)cc2)c(OC)c1,-1.1%
8,Cc1cc2ncn(C(=O)c3c(-c4c(Cl)cccc4Cl)noc3C)c2cc1C,13.8%
9,O=C1NC(=S)N(c2ccccc2)C(=O)/C1=C/c1ccc(-c2ccc(Cl)c(C(=O)O)c2)o1,2.4%
10,Cc1cc(C)c(S(=O)(=O)Nc2ccc3oc4c(c3c2)C(=O)CC(C)(C)C4)c(C)c1,2%
11,O=[N+]([O-])c1ccc(CNC2C3CC4CC(C3)CC2C4)cc1 (stereo not given),2.1%
12,O=C1NC(=O)/C(=C\c2ccccc2Cl)S1,-4.1%
13,CCOc1ccc(NC2CC(=O)N(c3ccccc3F)C2=O)cc1 (stereo not given),-4.9%
14,Cc1cc(Cl)ccc1OCC(=O)Nc1ccc(S(N)(=O)=O)cc1,1.2%
15,CCOC(=O)C1C(=O)CC(O)(c2cccc(Br)c2)CC1C=C(Cl)Cl (stereo not given),18.4%
16,O=C(N/C(=C/c1cccnc1)c1nc2ccccc2[nH]1)c1cccc(Br)c1,-2.3%
17,CC1=NN(C(=O)Cc2ccccc2)C(O)(c2ccc(Cl)cc2)C1 (stereo not given),-6.1%
18,CC1=C(C(=O)Nc2ccccc2)C(c2ccc(C)o2)NC(=S)N1 (stereo not given),-2.7%
19,O=[N+]([O-])c1ccc2nc(N3CCN(Cc4ccc5c(c4)OCO5)CC3)sc2c1,-19.7%
20,O=C(Nc1cccc(C(F)(F)F)c1)c1cccc(N2C(=O)c3ccccc3C2=O)c1,-5.6%
21,CC(=O)CC(c1ccccc1)S(=O)(=O)c1cccc(C)c1 (stereo not given),5.2%
22,O=C1C2C(C(=O)N1c1ccc(Br)cc1)C2(c1ccccc1)c1ccccc1 (stereo not given),6.8%
